From the supplement of paper PMC11417369
± gives the standard deviation of the averaged measurements. This is one part of the list.

What follows are sequences tested on PfAP2-I AP2 domain 3 (GST-tagged) (assay: gcPBM binding intensity (ln(normalized median fluorescence intensity)); higher = stronger DNA binding).
In short: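 Binding of GST-tagged P. falciparum DNA-binding domains, expressed in E. coli and used at about 25 μg on average, was carried out for 1 h in 1× PBS containing 1% milk, 0.2 mg/ml BSA, 0.5% salmon testes DNA and 0.03% Triton X-100. The target was an Agilent 4 × 180k array of primer-extended double-stranded 36-bp intergenic genomic probes plus negative controls, read with Alexa488 anti-GST antibody at 488 nm. Binding intensity is the highest Masliner-normalised natural-log median intensity across replicate spots of either probe orientation.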

Sequence | gcPBM binding intensity (ln)
TATTATATATGGAAGTAATAATATATATATATATAT [GTGCAC_negctrl_site63] | 9.04 ± 0.099
TTATGTCGTAAATACACACATACATATACATACACA [CACACA_site1374] | 7.86 ± 0.54
TTGTCACTAATAGATGCATGCAATCATTCCATTTTT [TGCATGCA_site938] | 7.67 ± 0.9
AATAAATTGAAACACACACACACATATATATATATA [CACACA_site848] | 9.39 ± 0.23
TTGTAATGATATATTTGTACTTAATATAATTGTATA [XGTACX_site2748] | 7.67 ± 0.17
GTTACATACCTATACACACACATATATAAATAAATA [CACACA_site6549] | 8.3 ± 0.3
TAACAAAACATAGATTGTACATATTATAAATGTATA [XGTACX_site1543] | 7.6 ± 0.23
CAATATTATATTACTTGTACACATATGTAGTTTCGA [XGTACX_site8945] | 7.83 ± 0.33
TTTCCCATAGGAAAAACACACATATATTATATATAA [CACACA_site1981] | 7.44 ± 0.48
CAAAATATACACACGTGTACACAAATATTTACAAAA [XGTACX_site2257] | 8.36 ± 0.33
ATATAAAAATACAGGTGTACATTTTTTCATATTTAT [XGTACX_site6959] | 7.76 ± 0.54
TATTCTTATCTTACCACACACAATGTACGAAAAGAT [CACACA_site6296] | 8.2 ± 0.31
ATCATTTTTTATGCGTGTACATAAATTTATTAGGTT [XGTACX_site2786] | 8.15 ± 0.6
TTTTTTGTTAAACCGGTGCATATAAATATATATATA [GTGCAC_site9989] | 10.8 ± 0.26
TAATTATTACACGGTATTATATATAATATGTTAAAA [GTGCAC_negctrl_site134] | 8.04 ± 0.42
CACAAAAAAGTTCATACACACAACATATTTATATAT [CACACA_site2887] | 7.61 ± 0.45
ATATCTATATTTTAAAGTACGTAGTAAAAAGAAAAA [XGTACX_site4323] | 8.12 ± 0.47
TTTTTTTTTTTTCTGTGTACATATATAATATATATA [XGTACX_site1592] | 8.21 ± 0.52
TTTTATGAAAAGATGAGTACACAATACTTTTTAATT [XGTACX_site8253] | 7.79 ± 0.28
TGCATGTAATTTTTGTGTCCACATAAAATATTTAAT [XGTACX_site5652] | 8.02 ± 0.31
TTCTATATATTATATGCATGTAAAACATATTAAAAT [TGCATGCA_site662] | 7.93 ± 0.61
TTTTTATGAAAATAAACACACGATTTATTATATATA [CACACA_site1311] | 7.62 ± 0.4
TTTTTCAATTGTAGTGGTACAGATATAATTATCTCT [XGTACX_site5500] | 7.8 ± 0.57

Sequence | gcPBM binding intensity (ln)
ATGTACTATGATAATGCATGCAATAATACATTTTTA [TGCATGCA_site318] | 7.95 ± 0.67
TTATTATGTATATATGCACACAATACCCAAAACAAC [CACACA_site80] | 9.365 ± 0.035
TAATATATATATAATACACACTATTTTAATCACATA [CACACA_site4849] | 7.71 ± 0.59
TTTATTGCTCTATATGCACACCTTAATTCTTCATTT [CACACA_site8682] | 9.86 ± 0.11
GAAGATTTATCTTGCACACGCAAAAAAAAAAAAAAA [CACACA_site154] | 8.92 ± 0.085
GAAAATATTTCTATCTGTACTTATTTATATATATAT [XGTACX_site7317] | 9.06 ± 0.099
AAAAATAATCATAGTAGTACAAAAAAAAAAAAAAAA [XGTACX_site3736] | 8.01 ± 0.57
TACGTAAATTCTAATACACACTATAGGATATTCTGC [CACACA_site7248] | 7.63 ± 0.42
TTTATAATATACATAACACACAATTATTATTTCTTA [CACACA_site3624] | 7.58 ± 0.47
AACTTTTAGAAGAACACACACATATAGATTATGACC [CACACA_site6256] | 7.89 ± 0.57
TTTTTTTCCTTATCTATATATAATCAAATTTTCTAC [CACACA_negctrl_site867] | 7.75 ± 0.61
TTATAACAAATATAGAGTACTAAAATTTTACGTTAT [XGTACX_site1410] | 7.66 ± 0.48
TCGAACATTAACATAACACACATATATATATATATA [CACACA_site2900] | 9.27 ± 0.29
AAGGTTATTTATATATGTACTTAATATATATATATG [XGTACX_site886] | 7.7 ± 0.23
TGCTATAATTTATATACACACAAATATATACTCATA [CACACA_site6111] | 7.7 ± 0.45
TATAACTATTTATAATGTACTCATGTATAATTATAT [XGTACX_site7913] | 7.67 ± 0.22
TTAATTTATTTATGCACACATATATAATTACACATA [CACACA_site4544] | 9.9 ± 0.43
TTTATATATTATATAAATATTATTATACTTTAAATA [TGCATGCA_negctrl_site236] | 7.34 ± 0.19
TTTTATCGATATATCTGTACATATTACTTATAATAA [XGTACX_site57] | 7.93 ± 0.44
ATGCTTTTGTCATGTGCACACACGTATATATTATAT [CACACA_site4163] | 9.82 ± 0.3
ACATGTATTTATAAGAGTACATATGTGTGCATGTTT [XGTACX_site7946] | 8.59 ± 0.18
AAAAAAAAAAAAAGATGTACATATATTTTTATTATA [XGTACX_site654] | 7.71 ± 0.33
AAGGATATAAAAAAACGTACGTACGATAATATAATT [XGTACX_site1292] | 8.07 ± 0.52

Sequence | gcPBM binding intensity (ln)
AACCATTCTTCTAATTGTACATTGAAAAATCATGAT [XGTACX_site3854] | 7.85 ± 0.51
AGTATTTTAATTTCAGTGCATTTTATTCTATAATTA | 9.47 ± 0.29
AAAAAAAAAAAAAATGCATGTGCGTAAATAATAATA [TGCATGCA_site793] | 8.78 ± 0.47
ATATATATCTATATTTGTACATATTACATTCAAGTT [XGTACX_site1749] | 7.96 ± 0.64
TTTAGGAAAGGCGGCACACATTTATATATTTATTTA [CACACA_site5931] | 7.5 ± 0.49
AAGTTTTCTTACAGATGTACTTTTTAAAAATAAACT [XGTACX_site6632] | 7.95 ± 0.52
TTTTTTTTTTCTTGTTGTACTTTTAATAATTCATAT [XGTACX_site4704] | 8.11 ± 0.42
TTATTAAAAAAAATATGTACTCACAATATAATATAT [XGTACX_site3738] | 7.84 ± 0.18
GAAATTTTTAAAAAGGTGCTTTTAACAAAAATTATT [GTGCAC_site9687] | 9.88 ± 0.35
ACCATCCTTAATACTTATTTTTTCACAATTAAGTAA [GTGCAC_negctrl_site269] | 7.96 ± 0.51
TATATATATATAACATGTACATAAAATACATTTATA [XGTACX_site7370] | 9.07 ± 0.099
TTAGCAACTATTACTACACACATTTGTATATAATTT [CACACA_site1591] | 7.76 ± 0.61
CAACACTTATTGAAACGTACGCATATAGTTTCTTTT [XGTACX_site8960] | 7.57 ± 0.57
AAAGGATATGGACACACACACACATATATATATATA [CACACA_site8686] | 9.27 ± 0.21
TTTATTTATATTTATACACACAAACATAATACTACT [CACACA_site7039] | 7.92 ± 0.42
ATATATTTTTTAAACACACACATAAATATTTGTGTA [CACACA_site2879] | 7.84 ± 0.49
TATTTTTCTTTATTGGTACACACGAAAAAAAAATTG [CACACA_site3054] | 7.93 ± 0.31
AAAATCCAGTTTTCAAAATTGAACAAAAAAAAAATA [GTGCAC_negctrl_site542] | 7.5 ± 0.56
TCTAAGTATAAAGACACACAGAATAAAAAAAAATAT [CACACA_site2367] | 7.99 ± 0.81
AAAATATATATGTATGTTTATATGTTTATATATATT [XGTACX_negctrl_site337] | 7.45 ± 0.59
AAAAAAAAATTTAAGTGTACATTCCATTTTAGTTTA [XGTACX_site5286] | 7.33 ± 0.42
AAGAAGCATAAATGTACACACATATTTATATATCAA [CACACA_site6743] | 7.84 ± 0.39
TATTTAATATATTTATGTACATATTTATTTATTATT [XGTACX_site524] | 7.6 ± 0.18

Sequence | gcPBM binding intensity (ln)
TAATATACATAATAATGTACATATTTTCATATATAC [XGTACX_site6913] | 7.67 ± 0.26
CACAAAATAAATTAAACACACAACATCAGATATGTA [CACACA_site6529] | 7.37 ± 0.43
AACTATTTTATTATATGTACTTACGAATTTATAAAA [XGTACX_site5262] | 7.87 ± 0.35
AATGTAGGTTTATTTACACACAAATATAAATATATA [CACACA_site1523] | 7.6 ± 0.44
TGTGTTGTAACAAAATGTACGAGCTTGATGTAGAAT [XGTACX_site2293] | 8.13 ± 0.66
ATAAACTGATGTGTATGTACACATGTAATAATAAAT [XGTACX_site7649] | 7.89 ± 0.42
ATGTAAAACATAAAATGTACATATTATACAAACTAT [XGTACX_site5797] | 7.92 ± 0.47
TAAGTATAAATATTTACACACATTTGTTTTTTTTTA [CACACA_site7731] | 7.49 ± 0.4
AATAAAATAATAAAAGCACACAAGAATACAGACAAA [CACACA_site112] | 8.46 ± 0.59
GGATAATATATTAGAACACACATATATCTGTAAAAA [CACACA_site4266] | 7.74 ± 0.53
TAATATAATATATGCACACAAATATGTATATATGTG [CACACA_site2134] | 8.895 ± 0.049
TTGGATTTTCCATAATGTACACATAAAAGTGTTACA [XGTACX_site4544] | 7.5 ± 0.41
TTTTAAAAAATATAATATAATATAATATAAAATAAA [CACACA_negctrl_site154] | 7.39 ± 0.32
TTCTTATCAAGAGAAAGTACATAAAAAATTAATAAG [XGTACX_site1821] | 8.12 ± 0.18
CAAAACCTACATAACATACACACGCATATATAGAAT [CACACA_site2846] | 7.9 ± 0.4
CCAACAAAAATAAGCACACACAAATATACATACATA [CACACA_site3606] | 8.06 ± 0.29
CATGCAATATTAAACACACACTCATATAGCACAATA [CACACA_site6182] | 10.8 ± 0.49
ACAGTATCTGGTAGCTGTACGGATTGTAGAGAGTAG [XGTACX_site4872] | 8.46 ± 0.36
AGAATAATAAAATGGGTGCAATAGTTTTTTTTTTTT [GTGCAC_site9823] | 11.2 ± 0.44
TATTAAAGGGGTTTCACACACATGTATAATTAATTT [CACACA_site200] | 7.69 ± 0.57
